Assay results reported in PubChem BioAssay AID360 (National Center for Advancing Translational Sciences (NCATS), 2006).
In all, about 48,000 compounds went through this assay and about 550 (1.1%) were called active. Not shown: some 4% with an inconclusive outcome. No stated cut-off is given here; in the data, active means potency below about 15 µM; inconclusive means mostly about 16 µM to 33 µM; inactive means weaker than that. The list shows a part of the results.

target: Lysosomal acid glucosylceramidase (Homo sapiens) (UniProt P04062); assay: Glucocerebrosidase; conditions: purified enzyme, resorufin glucoside fluorescence (screen aimed at inhibitors), 20 min; series mostly up to 77 µM;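 further: the screen sought inhibitors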
UniProt P04062, sequence (P04062 whole entry, looked up): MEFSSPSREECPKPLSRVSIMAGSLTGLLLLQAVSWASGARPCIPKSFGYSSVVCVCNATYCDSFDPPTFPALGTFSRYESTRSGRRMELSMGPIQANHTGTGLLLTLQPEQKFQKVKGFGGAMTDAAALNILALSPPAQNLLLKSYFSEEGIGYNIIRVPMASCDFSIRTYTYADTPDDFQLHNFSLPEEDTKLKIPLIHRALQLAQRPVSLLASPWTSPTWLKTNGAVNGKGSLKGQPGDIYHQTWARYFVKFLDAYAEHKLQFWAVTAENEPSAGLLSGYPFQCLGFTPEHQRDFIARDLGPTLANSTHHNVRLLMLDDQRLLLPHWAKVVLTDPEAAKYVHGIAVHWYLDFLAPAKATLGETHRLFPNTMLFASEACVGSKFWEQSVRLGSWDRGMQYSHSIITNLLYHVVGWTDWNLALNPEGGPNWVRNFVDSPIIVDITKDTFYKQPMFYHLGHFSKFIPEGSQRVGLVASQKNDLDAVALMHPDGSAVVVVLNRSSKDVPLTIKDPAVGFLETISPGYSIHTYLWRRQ
Procedure, shortened: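 Compounds titrated against 0.2 nM normal enzyme, 30 uM resorufin beta-D-glucopyranoside substrate, citrate/phosphate buffer with taurocholate and tween-20, pH 5.9. Reaction ran 20 min at room temperature; fluorescence (Ex 548/Em 600) gave AC50.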
Potency means the concentration at half of the fitted maximal effect.

Potency, inactive:
CCCCSCCCNC(=O)Nc1cccc(OC)c1 > 76.9 µM, CCOC(=O)c1ccc(-n2c(N)c(C(=O)NCc3ccco3)sc2=S)cc1 > 76.9 µM, CCOC(=O)c1ccc2nc3c(cc2c1)CCS3, CC1=NCCN1S(=O)(=O)c1ccc(Br)c(C)c1 > 76.9 µM, CN(C)C(=O)N1CCCC(C(=O)NCc2ccc(F)cc2Cl)C1 (stereo unspecified) > 76.9 µM, COc1ccc(C2C(C(=O)N3CCCCC3)c3ccccc3C(=O)N2C)cc1 (stereo unspecified) > 76.9 µM, N#Cc1c(N)nc(SCC(=O)NC2CCCCC2)c(C#N)c1-c1ccc(Cl)cc1 > 76.9 µM, O=C(CS(=O)(=O)c1ccccc1)c1ccc2c(c1)OCCO2 > 76.9 µM, COC(=O)c1ccc(C(=O)Nc2ccc(N)cc2N)cc1 > 15.4 µM, COCC(=O)n1nc(NCc2ccc(OC)cc2)nc1NCc1ccc(OC)cc1 > 76.9 µM, Cc1ccc(C(=O)NC=C(Cl)Cl)cc1 > 76.9 µM, O=C(CSc1nc(-c2ccco2)cc(C(F)(F)F)n1)NCC1CCCO1 (stereo unspecified) > 76.9 µM, Cn1c(=O)c2c(ncn2CC(=O)NC(C)(C)C)n(C)c1=O > 76.9 µM, O=C(CN1C(=O)COc2ccc(Cl)cc21)N1CCc2ccccc21 > 76.9 µM, CN(c1ccc(C(=O)O)cc1)S(=O)(=O)c1ccc(Cl)cc1 > 76.9 µM, O=C(O)CCS(=O)(=O)c1cccc2cccnc12 > 76.9 µM, C/C(N)=C(/C#N)C(=O)COC(=O)CCSc1ccccc1 > 76.9 µM, CC(=O)C1=C(O)C(=O)N(CCN(C)C)C1c1ccc(Cl)cc1 (stereo unspecified) > 76.9 µM, CCOC(=O)N1CCN(C(=O)c2cnn3c(C)c(Cc4ccc(C)cc4)c(C)nc23)CC1 > 76.9 µM, CC1(C)Oc2ccc(NC(=O)C3COc4ccccc4O3)cc2O1 (stereo unspecified) > 76.9 µM, Cc1ccc(NC(=O)C2C3CC4OC(=O)C2C4C3)cc1Cl (stereo unspecified) > 76.9 µM, CC12C(=O)N(Cc3ccccc3)C(=O)C1C1C=CC2C1 (stereo unspecified) > 76.9 µM, N#CC1=C(N)SC(N)=C(C#N)C1CCc1ccccc1 > 76.9 µM, O=S1(=O)N=C(Nc2ccc(S(=O)(=O)N3CCCCC3)cc2)c2ccccc21 > 76.9 µM, CCOC(=O)c1cnc(-n2nc(C)cc2C)nc1NC(C)c1ccccc1 (stereo unspecified) > 76.9 µM, N#CC1=C2C=CC=CN2CC1=O > 76.9 µM, NC(=O)CSc1nnc(-c2ccc(S(=O)(=O)N3CCOCC3)cc2)n1CC1CCCO1 (stereo unspecified) > 76.9 µM, Cc1ccccc1OCC(=O)Nc1ccc(N2CCN(S(C)(=O)=O)CC2)cc1 > 76.9 µM, Cc1cc(=O)[nH]c2n[nH]c(-c3ccccc3)c12 > 76.9 µM, NC(=O)c1ccsc1NC(=O)COc1ccccc1 > 76.9 µM, CSc1ccccc1NC(=O)c1cnccn1 > 76.9 µM, COc1cccc(NC(=O)CSc2ccccn2)c1 > 76.9 µM, CSCCC(NC(=O)C1CCC(C)CC1)C(=O)NCc1ccco1 (stereo unspecified) > 76.9 µM, CCOC(=O)N1CCN(c2c(NCCc3ccc(OCC)c(OCC)c3)c(=O)c2=O)CC1 > 76.9 µM, O=C(O)c1ccc2c(c1)C(=O)N(Cc1ccccc1)C2=O > 76.9 µM, COC(=O)CCc1c(C)c(C#N)c2nc3ccccc3n2c1N1CCCC1 > 76.9 µM, CCOC(=O)CSc1nnc(-c2ccc(S(=O)(=O)N3CCC(C)CC3)cc2)o1 > 76.9 µM, Cc1cc(C)cc(NC(=O)CCNS(=O)(=O)c2ccc3c(c2)oc(=O)n3C)c1 > 76.9 µM, COc1ccc(-c2coc3cc(O)ccc3c2=O)cc1OC > 76.9 µM, CCCCc1ccc(-c2ccc(C)cc2O)nc1 > 76.9 µM, Cn1c(=O)c2c(nc(CN3CCN(c4cccc(Cl)c4)CC3)n2CCc2ccccc2)n(C)c1=O > 76.9 µM, O=S(=O)(NCCc1ccccn1)c1cccs1 > 76.9 µM, C=CCn1c(SCC(=O)NC2CCS(=O)(=O)C2)nc2scc(C3CC3)c2c1=O (stereo unspecified) > 76.9 µM, O=C(CSc1nc(O)cc(=O)n1-c1ccccc1)N1CCCCC1 > 76.9 µM, Cc1cccc(C)c1OCCOCCN1CCN(C)CC1 > 76.9 µM, COc1ccc(CCNS(=O)(=O)c2cccs2)cc1 > 76.9 µM, CCn1c(COc2ccccc2)nnc1SCC(=O)C(C)(C)C > 76.9 µM, CCn1c(COc2ccc(Cl)c(C)c2)nnc1SCC(=O)N1CCCC1 > 76.9 µM, Cc1ccc(NC(=O)COC(=O)CCc2c[nH]c(=O)[nH]2)cc1 > 76.9 µM, Cc1nnc(SCSc2nnc(C)s2)s1 > 76.9 µM, Cn1c(=O)n(CCCOc2ccc(Cl)cc2)c2ccccc21 > 76.9 µM, COC(=O)c1cc(OC)c(OC)cc1NC(=O)c1c(-c2ccccc2)noc1C > 76.9 µM, COc1ccc(N2C(=O)C3CCCN3C2c2ccc(C)cc2)cc1Cl (stereo unspecified) > 76.9 µM, O=C1NCCCc2c1no[n+]2[O-] > 76.9 µM, CCCCCCn1c(SCC(C)C)nc2c1c(=O)[nH]c(=O)n2C > 76.9 µM, CCCC(=O)Nc1cnc(NC(=O)c2cccc(F)c2)cc1C > 76.9 µM, C1CCN(c2nc(N3CCCC3)nc(N3CCNCC3)n2)C1 > 76.9 µM, Cc1ccc2cccc(S(=O)(=O)Nc3ccc4c(c3)OCO4)c2n1, CCC(=O)Nn1c(C)nnc1C > 76.9 µM, COc1cc(C2C(C#N)=C(C)NC3=C2C(=O)CC(C)(C)C3)cc(OC)c1O (stereo unspecified) > 76.9 µM, COc1cc(C(=O)NCc2ccc3c(c2)OCO3)ccc1OCc1c(C)noc1C > 76.9 µM
